The full ranking holds about 5,400 compounds; the median of “IFI” is about 2, and the highest 2% start at about 22. The list shows a part of the results.

The assay can be described thus: NOVARTIS: Inhibition Frequency Index (IFI) - the number of HTS assays where a compound showed > 50% inhibition/induction, expressed as a percentage of the number of assays in which the compound was tested. The assay is classed as functional.
`CCN(CC)CCCC(C)Nc1ccnc2cc3ccccc3cc12` (stereo unspecified) came in with an IFI of 9.23%.

Consider `Oc1ccc(-c2ccccc2)cc1CN1CCCCCC1`, for which the IFI was 0%.

Molecule `CCC(c1nc2ccccc2c(=O)n1-c1cccc(Cl)c1)N(CCc1ccccc1)C(=O)c1ccc(F)cc1` (stereo unspecified) showed an IFI of 1.82%.

In turn, `COc1ccc(C2=C(c3ccc(OC)cc3)C3(c4ccccc4)C(=O)C2(c2ccccc2)C2C(=O)N(c4ccccc4[N+](=O)[O-])C(=O)C23)cc1` (stereo unspecified) registered an IFI of 0%.

Molecule `COc1cc2c(cc1OC)C(=NN=C1NC(C)(C)Cc3ccccc31)NC(C)(C)C2` displayed an IFI of 1.64%.

`CN(CCCNc1ccnc2cc(Cl)ccc12)C(=O)CCc1ccccc1` had an IFI of 3.74%.

`CN1CCN(c2nc(NN=Cc3cc(I)ccc3O)nc(Nc3ccc([N+](=O)[O-])cc3)n2)CC1` displayed an IFI of 5.26%.

In turn, `CN(CCCNc1ccnc2cc(Cl)ccc12)C(=O)C12CC3CC(CC(C3)C1)C2` yielded an IFI of 3%.

Molecule `COc1ccccc1N1CCN(c2ccc(NC(=O)c3ccc(Br)cc3)cc2C(=O)NCCCN(C)C)CC1` had an IFI of 3.09%.

As to `CCN1CCN(c2cc(C)c3cc(NC(=O)/C=C/c4ccc(OC)cc4)ccc3n2)CC1`, the IFI is 0%.

For the molecule `CCOC(=O)c1c(NC(C)=O)sc2c(O)c(CNC3CCCCC3)ccc12`, the IFI was 0%.

Molecule `COC(=O)[C@@H]1C[C@@H](NC(=O)c2ccc(OC)cc2OC)CN1C/C(C)=C/c1ccccc1` gave an IFI of 1.74%.

As to `Cc1c2c(n3c(nc4ccccc43)c1C#N)N(CCN(C)C)CC2`, the IFI is 0%.

As for `O=C(C[n+]1ccc(/C=N/O)cc1)NC12CC3CC(CC(C3)C1)C2`, the IFI was 0%.

On to `CCOc1ccc(Nc2cc(=O)oc3ccccc23)cc1`, for which the IFI amounted to 0%.

`COc1cc(NC2=CC(=O)C(=O)c3ccccc32)c(OC)cc1Cl` came in with an IFI of 13.5%.

`CC(C)CNc1nc(NCCCN(C)C)ncc1C(=O)NCc1ccccc1`: the IFI was 2.02%.

`Cc1[nH]c2ccccc2c(=O)c1Br` gave an IFI of 0%.

`COC(=O)c1c(S(=O)(=O)NCCN(C)C)sc2c1CCN(CC(C)c1ccccc1)C2` (stereo unspecified) came in with an IFI of 2.91%.

Take `O=C(O)CSc1nc2c(ccc3nsnc32)[nH]1`: the IFI worked out at 0%.

Molecule `Cc1ccc(C)c(Nc2nc3c(s2)CCCC3)c1` gave an IFI of 0%.

Consider `COc1cccc(CN2CCN(C3CCCC(C)C3)CC2)c1OC` (stereo unspecified), for which the IFI came to 0%.

Turning to `Cn1c(C(=O)c2cccc3ccccc23)nc2ccccc21`, the IFI turned out to be 2.44%.

In the case of `N=c1c2c(n(Cc3ccc(Cl)cc3)c3c1CCC3)CCCC2`, the IFI was 14.3%.

`COC(=O)[C@@H]1C[C@@H](NC(=O)c2ccc(OC)cc2)CN1CC(c1ccccc1)c1ccccc1`: the IFI is 1.65%.

Take `O=C(NNC(=S)NCc1ccco1)C(F)(F)F`: the IFI turned out to be 2.02%.

In the case of `O=C(NCSC1=NCCS1)c1ccccc1`, the IFI stood at 0%.

In turn, `O=C(NC1CCN(CC(O)CN(Cc2ccccc2)S(=O)(=O)c2ccccc2)C1)c1ccco1` (stereo unspecified) yielded an IFI of 2.94%.

In the case of `CC(NCc1cc(-c2ccccc2)ccc1O)c1cccc2ccccc12` (stereo unspecified), the IFI stood at 1.7%.

On to `COc1ccc(OC)c(-c2csc(N(CCCN(C)C)C(=O)Cc3ccccc3)n2)c1`, for which the IFI is 9.28%.

`O=C(Cc1ccsc1)NC1CCN(CC(O)CN(Cc2ccccc2)S(=O)(=O)c2ccccc2)C1` (stereo unspecified): the IFI was 3.03%.

In turn, `COc1ccc(CNCCN2CCN(c3ccccc3)C[C@@H]2Cc2ccc(O)cc2)cc1` registered an IFI of 2.63%.

The molecule `CCOC(=O)C1=C(C)NC2=C(C(=O)C(C(=O)OCC)C(c3ccccc3OC)C2)C1c1ccc([N+](=O)[O-])cc1` (stereo unspecified) yielded an IFI of 6.98%.

Molecule `CC(C)(C)C(=O)NCCNc1ccc([N+](=O)[O-])cc1C(F)(F)F` displayed an IFI of 0%.

Consider `Cc1ccc(S(=O)(=O)NNC(=O)C2CCC(c3ccccc3)CC2)c2nsnc12` (stereo unspecified), for which the IFI was 0%.

The molecule `COc1cc2nc(NC(=N)N)nc(C)c2cc1OC` showed an IFI of 3.15%.

`O=C(Cc1ccccc1)NC(c1ccc(Cl)cc1)c1ccc2cccnc2c1O` (stereo unspecified) had an IFI of 9.38%.

In the case of `CN(C)CCCNc1cc(-c2ccccc2)nc2ccccc12`, the IFI is 3.85%.

As for `CC(=O)c1c(C)n(CC(=O)Nc2cccc(C)c2)c2ccccc12`, the IFI was 0%.

`O=C(CC(=O)N1CCOCC1)Nc1ccc2nc3n(c(=O)c2c1)CCCCC3` registered an IFI of 7.69%.

`CC1=NOC(=O)/C1=C\c1cccs1` had an IFI of 2.4%.

The molecule `Cc1ccc2c(c1)C(C)(c1ccc(Cl)cc1)CC(C)(C)N2C(=O)COc1ccc2ccccc2c1` (stereo unspecified) showed an IFI of 0%.

`COc1ccc(-c2nnc(NC(=O)CCN(CCc3ccc(OC)c(OC)c3)C(=O)c3cccc4ccccc34)s2)cc1` registered an IFI of 3.81%.

In turn, `COC(=O)C1=C(C)NC2=C(C(=O)CC(c3ccc(OC)c(OC)c3)C2)C1c1ccc([N+](=O)[O-])cc1` (stereo unspecified) showed an IFI of 1.19%.

Molecule `COc1ccc2c(c1)-c1c(ssc1=S)C(C)(C)N2C(=O)c1cccc(Cl)c1` showed an IFI of 0%.

`Cc1ccc(CNC(=O)CSc2nc3ccsc3c(=O)n2CCCCCC(=O)NCCc2ccccc2)cc1`: the IFI came to 0%.

In the case of `CC[C@@H](C(=O)[C@@H](C)[C@@H](O)[C@H](C)CCc1ccc(C)c(O)c1C(=O)O)[C@H]1O[C@](CC)([C@H]2CC[C@](O)(CC)[C@@H](C)O2)C[C@@H]1C`, the IFI amounted to 26.9%.

Take `O=C(Cn1c(=O)oc2cc(S(=O)(=O)N3CCCC3)ccc21)Nc1cccnc1`: the IFI amounted to 0%.

As to `CCCS(=O)(=O)c1c(S(=O)(=O)CCC)c2ccc(C(C)=O)cn2c1C(=O)c1ccc(C)cc1`, the IFI is 3.03%.

Regarding `Cc1ccc(NC(=O)N2CCN(C(=O)c3nc(-c4ccccc4)nc(C)c3C(=O)OC(C)C)CC2C)c(C)c1` (stereo unspecified), the IFI was 2.88%.

In the case of `CC(C)CNc1nc(NCCC2CCCN2C)ncc1C(=O)NCc1ccccc1` (stereo unspecified), the IFI came to 1.91%.

Turning to `CC(C)CN1C(=O)c2ccccc2C(C(=O)Nc2ccc(F)cc2F)C1c1cccs1` (stereo unspecified), the IFI is 6.06%.

Take `Brc1ccc(C=NNc2nc3ccccc3[nH]2)cc1`: the IFI was determined as 9.02%.

The molecule `Cc1ccc(C)c(NC(=O)C2CCCN(c3nnc(N4CCCC4=O)s3)C2)c1` (stereo unspecified) gave an IFI of 0%.

As for `CCN1CCN(c2cc(C)c3cc(NC(=O)c4cncc(Br)c4)ccc3n2)CC1`, the IFI worked out at 3.33%.

`CCCCCCCCNC(C)C(O)c1ccc(SC(C)C)cc1` (stereo unspecified) yielded an IFI of 3.11%.

`CCOC(=O)c1cnc2cc(Cl)c(OC)cc2c1NCCCN1CCOCC1` showed an IFI of 0%.

With `Cc1ccc(CNC(=O)CCCCCn2c(SCc3cccc([N+](=O)[O-])c3)nc3ccsc3c2=O)cc1`, the IFI was determined as 0%.

`CCCOC(=O)C1=C(C)NC2=C(C(=O)CC(c3ccc(OC)c(OC)c3)C2)C1c1cccc(Cl)c1Cl` (stereo unspecified) yielded an IFI of 7.14%.

In turn, `Cc1ccc(C)c(Nc2nc(NCc3ccccc3)c3ccccc3n2)c1` returned an IFI of 8.11%.

With `CC(=O)N(C1=C(N2CCC(C)CC2)C(=O)c2ccccc2C1=O)c1cccc(F)c1`, the IFI is 0%.
